From PubChem BioAssay AID1671194 (National Center for Advancing Translational Sciences (NCATS), 2021)
“And” between values parts separate entries of the source, which are not always exact repeats. Equal entries are not always repeated. The campaign covered roughly 140,000 compounds. About 240 (0.17%) were called active. Inconclusive means that the source gave no clear call. Such entries were picked first, then a sample of the others. Calls come from the whole dose curve; as a rule, active = well fitted inhibition curve with a large enough effect; inconclusive = small, poorly fitted or top-dose-only effect; inactive = no such curve, though single readings can be large or run the other way. Potencies of inconclusive entries are doubtful fits and often do not repeat.

experiment: Primary qHTS assay for inhibitors of alpha-synuclein gene (SNCA) expression; details: HEK-293 SNCA-luciferase knock-in, luminescence, 24 h; activity change, negative = inhibition: at 57.2 µM (top of the series) unless noted; note: nearly all actives have a fitted effect of over 45% in size;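 for activity change, negative = inhibition: plate controls were DMSO cells for no effect and cell-free wells for full effect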
Potency is the fitted concentration of half-maximal effect; tags give direction and shape of the fitted curve.

Potency, inconclusive:
COc1ccc(C(=O)N2CCC3(CC2)NCCc2c3[nH]c3ccccc23)cc1F 28.2 µM [inhibitor, single point]
CCNC(=O)N1CCOc2ccc(CCC(=O)NCc3nc4ccccc4n3C)cc2C1 8.91 µM [inhibitor, single point]
CCOc1ccccc1NS(=O)(=O)c1ccc(-c2cnc(C3CC3)o2)cc1 14.1 µM [inhibitor, partial curve, poor fit]
O=C1Nc2cc(Cl)ccc2C(=O)N2CCN(C(=O)c3ccccc3)C[C@H]12 56.2 µM [inhibitor, single point]
O=C(NCc1ccc2c(c1)CCN2C(=O)c1ccc(Cl)cc1)c1cccc(F)c1 2.51 µM [inhibitor, single point]
COCCN1C(=O)CS(=O)(=O)C12CCN(C(=O)c1ccc(OC)cc1)CC2 8.91 µM [inhibitor, single point]
COc1ccccc1-c1cccc(CN2CCCC(C(=O)NC3CCCC3)C2)c1 (stereo not given) 39.8 µM [inhibitor, single point] and 22.4 µM [inhibitor, partial curve, poor fit]
Cc1ccc(NS(=O)(=O)c2ccc3c(c2)CCCN3C(=O)C2CCC2)cc1Cl 10 µM [inhibitor, partial curve, poor fit]
Cc1noc([C@H]2CCN(C(=O)c3ccnn3C)C[C@H]2NC(=O)C2CC2)n1 17.8 µM [inhibitor, single point]
Cc1nn(-c2ccc(C(C)C)cc2)c(C)c1[C@@H]1C=C[C@@H](NCc2cccc(Cl)c2)C1 56.2 µM [inhibitor, single point]
Cc1ccc(CS(=O)(=O)c2ncc(Cl)c(C(=O)Nc3nc4ccc(F)cc4s3)n2)cc1 39.8 µM [inhibitor, single point]
COc1ccc(C(=O)NC2CCN(c3cnn(C)c(=O)c3)CC2)cc1OC 8.91 µM [inhibitor, single point]
COc1ccc(Br)cc1C1Sc2ccccc2NC2=C1C(=O)c1ccccc12 (stereo not given) 35.5 µM [inhibitor, partial curve, poor fit]
COc1ccc(-c2noc([C@@H]3Cc4nc[nH]c4CN3C(=O)CCC(=O)O)n2)cc1 5.01 µM [inhibitor, full curve, poor fit]
Cn1nc(C2CCN(S(=O)(=O)c3ccc4c(c3)CCCC4)CC2)n(C2CCCC2)c1=O 12.6 µM [inhibitor, partial curve, poor fit]
O=C(CSc1nccn1Cc1ccc(Cl)cc1)Nc1ccc2c(c1)OCCO2 0.178 µM [inhibitor, full curve, poor fit]
Cc1cc(C)cc(NS(=O)(=O)c2ccc3c(c2)CCCN3C(=O)C2CCC2)c1 25.1 µM [inhibitor, single point]
CSc1ccc2c(c1)C(N1CCN(C)CC1)Cc1ccccc1S2 (stereo not given) 22.4 µM [inhibitor, single point]
CC(C)(O)CCc1ccc(C(=O)NCc2nc(-c3ncccn3)no2)cc1 6.31 µM [inhibitor, single point]
COc1ccc(-c2ccc3c(c2)C(=O)N2C[C@@H](NS(=O)(=O)c4ccc(F)cc4)C[C@H]2C(=O)N3)c(OC)c1 39.8 µM [inhibitor, single point]
COCCCNC(=O)c1ccc2c(=O)n(Cc3ccc(OC)cc3)c(=O)[nH]c2c1 14.1 µM [inhibitor, partial curve]
Cc1ccc(O)c(N=Nc2ccccc2)n1 39.8 µM [inhibitor, single point]
COCCNc1nc(C)nc2c1CCN(Cc1ccccc1C#N)CC2 3.55 µM [inhibitor, single point]
CCOc1cc(C2c3c(-c4ccc(Br)cc4)n[nH]c3C(=O)N2c2ccc(Cl)cc2)ccc1O (stereo not given) 25.1 µM [inhibitor, single point]
O=C(NCc1cccc(F)c1)C1CCCN1Cc1ccc(-c2cncnc2)cc1 (stereo not given) 35.5 µM [inhibitor, single point]
CN1C(=O)c2cccn2CC1C(=O)NCc1cccs1 (stereo not given) 28.2 µM [inhibitor, single point]
O=C1C(N2CCN(S(=O)(=O)c3cccs3)CC2)CCN1CCc1ccccc1 (stereo not given) 3.98 µM [inhibitor, single point]
C[C@@H](NC(=O)C[C@@H]1c2nc(NC(=O)c3ccco3)sc2C[C@@H]2[C@](C)(CO)[C@H](O)CC[C@]21C)c1ccccc1 2.82 µM [inhibitor, full curve, poor fit]

Activity change, negative = inhibition, inactive:
CC(=O)Nc1cccc2ccc(OCc3nnc(C(=O)N4CCC[C@@H]4c4ccc(Br)cc4)n3Cc3ccccc3)cc12 -21.7%
Cc1c(Cl)cccc1NC(=O)c1ncn(-c2ccccc2)n1 116%
C[S+](=O)([O-])c1ccc(-c2nnc3ccc(C(=O)NCc4ccc(Cl)cc4)cn23)cc1 -0.674%
COc1cc(CN(C)C(=O)c2c(C)noc2-c2cccc(F)c2)cc(OC)c1OC -1.4%
CCN(CC)c1cc(CCC(=O)NCc2cc(OC)ccc2OC)ccn1 -1.87%
CC(=O)NC[C@H]1Cn2c(-c3ccc4c(c3)OCCO4)cnc2CO1 23.1% [at 87.6 µM]
COc1ccc(Cn2c(C3CCN(C(=O)Cc4ccc(C)cc4)CC3)n[nH]c2=O)cc1 0.564%
CC(C)(C)C(=O)NC1CCN(c2ccnc3ccnn23)CC1 -17.4% [at 87.6 µM]
COc1cccc(Nc2cc3[nH]ccc3c(C(=O)NCc3c(C)cc(C)[nH]c3=O)n2)c1 0.9% [at 87.6 µM]
Cc1ccc(S(=O)(=O)C(CNC(=O)c2ccccc2F)c2cccs2)cc1 (stereo not given) 2.5%
CCn1cc(CN2CCCC(COc3ccccc3C(=O)N3CCCC3)C2)c2ccccc21 (stereo not given) -3.74%
COCc1cc(NCCCNc2cccnc2)ncn1 -0.344%
